Where “and” joins values, the source holds several entries; their conditions need not be identical. Identical values can stand only once. Screen size: about 48,000 compounds; about 1,200 (2.5%) were called active. About 2% were inconclusive and are not listed.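 The calls were made as follows: active = activation of at least 60% and not above a set upper limit (about 1 call in 100 departs from these limits); inconclusive = activation of 40% to 60%, or above that upper limit; inactive = activation under 40%.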 Some of the results follow.
Biological target: Probable G-protein coupled receptor 32 (Homo sapiens) (UniProt O75388)
Test: qHTS for Agonists of Human Resolvin D1 Receptor DRV1; also: 0% is about no effect
Conditions: CHO-K1 GPR32 beta-arrestin PathHunter luminescence, 90 min; at 76.9 µM; active compounds read high; zero percent set by DMSO-only wells
Procedure, shortened: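 Step 1: seed CHO-K1 GPR32 beta-arrestin cells, 2,500/well, overnight at 37 °C. Step 2: add compounds, 90 min at 37 °C. Step 3: detection reagent, 1 h ambient, then luminescence.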

Sequence of UniProt O75388 (O75388 whole entry, looked up): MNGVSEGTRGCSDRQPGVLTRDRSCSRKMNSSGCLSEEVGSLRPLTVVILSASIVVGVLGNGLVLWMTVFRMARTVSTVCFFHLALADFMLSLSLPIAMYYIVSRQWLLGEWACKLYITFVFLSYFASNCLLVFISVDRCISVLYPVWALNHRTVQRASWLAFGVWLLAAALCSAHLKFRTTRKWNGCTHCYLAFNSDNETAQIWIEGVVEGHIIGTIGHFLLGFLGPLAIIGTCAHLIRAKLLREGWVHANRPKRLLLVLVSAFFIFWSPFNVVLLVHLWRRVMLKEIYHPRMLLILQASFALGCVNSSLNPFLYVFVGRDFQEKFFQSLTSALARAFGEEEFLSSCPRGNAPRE

Structure (SMILES)	activation
O=C(Nc1nnc(-c2cc(Cl)ccc2Cl)o1)c1ccc2c(c1)OCCO2	inactive: -2.26%
COc1ccc(-n2c(Cc3ccccc3)nnc2SCc2nc(-c3cccs3)no2)cc1	inactive: 1.25%
O=c1cc(CSc2ncn[nH]2)[nH]c2ccc(F)cc12	inactive: -2.27%
CCc1ccc(NS(=O)(=O)c2ccc3oc(=O)c4ncn(CC)c4c3c2)cc1	inactive: 12.6%
CCOC(=O)C1CCC(CN(Cc2ccc(OC)cc2)S(=O)(=O)c2ccc(F)c(C(=O)Nc3ccc(C)c(C)c3)c2)CC1 (stereo not given)	inactive: 6.11%
CCN(CC)S(=O)(=O)c1ccc2c(c1)N(CC(=O)N1CCN(c3cccc(Cl)c3)CC1)C(=O)CO2	inactive: -32%
CCC1CN(C(=O)N2CCC(C(=O)NCCc3cc(OC)ccc3OC)CC2)c2ccccc2O1 (stereo not given)	inactive: -11.8%
CN(C)C1(CNC(=O)COc2ccc([N+](=O)[O-])cc2)CCCCC1	inactive: -3.5%
CCN(C(=O)Cn1c(=O)n(CCCS(=O)(=O)C2CCCCC2)c(=O)c2ccccc21)c1cccc(C)c1	inactive: 2.58%
COc1cccc(-n2cc(C(=O)Nc3cccc(C(F)(F)F)c3)c3ccccc3c2=O)c1	inactive: -20.6%
CC(C)Oc1ccc(CNC(=O)c2ccc(CS(=O)c3cccc(Cl)c3)o2)cc1 (stereo not given)	inactive: -0.247%
Cc1ccc(NC(=O)N2CCc3cc(S(=O)(=O)N4CCC(C)CC4)ccc32)cc1	inactive: -12.1%
CCn1c(CN2CCOCC2)nc2cc(NC(=O)c3ccccc3[N+](=O)[O-])ccc21	inactive: -23.6%
CC(=O)Nc1cc(-c2nc3cc(Cl)ccc3o2)ccc1C	inactive: -3.75%
CC1CCN(C(=O)Cn2c(=O)n(CCCCCC(=O)NCc3ccccc3Cl)c(=O)c3sccc32)CC1	inactive: -27.8%
Cc1ccc(Cl)cc1Nc1nn2c(=O)c3ccc(C(=O)Nc4ccc(F)cc4)cc3nc2s1	inactive: 22.4%
Cc1cc(Cl)ccc1NC(=O)Cn1nc(C)c2c(C)n(-c3ccccc3)nc2c1=O	inactive: -17.6%
CC(=O)N1CCc2c(sc3nc(SCC(C)C)n(-c4ccc(C)c(Cl)c4)c(=O)c23)C1	inactive: 29%
Cc1ccc(-c2nnc(Nc3ccc(OC(F)(F)Cl)cc3)c3ccccc23)cc1S(=O)(=O)NC(C)(C)CO	inactive: -7.05%
Cc1nc2scc(C)n2c(=O)c1S(=O)(=O)Nc1ccc(N2CCN(S(C)(=O)=O)CC2)cc1	active: 79.6%
N[C@@H](Cc1ccc(O)cc1)C(=O)O	inactive: -21.1%
O=C(COc1ccc(Cl)cc1)N1CCN(Cc2ccc3c(c2)OCO3)CC1	inactive: 40.5%
CCc1nn2c(=O)cc(COC(=O)c3ccc(NC(=O)CCc4ccccc4)cc3)nc2s1	inactive: -20.8%
O=C(Nc1ccc(-c2nc3cc(NC(=O)c4ccc(F)cc4)ccc3o2)cc1)c1ccc(F)cc1	inactive: 2.56%
CCCCn1c(=N)c(S(=O)(=O)c2ccc(C)cc2)cc2c(=O)n3cc(C)ccc3nc21	inactive: -2.27%

Structure (SMILES)	activation
Nc1ccc(NC(=O)c2cccc(C(=O)Nc3ccc(N)cc3Cl)c2)c(Cl)c1	inactive: -1.73%
O=C(COc1ccccc1)N(Cc1cccnc1)c1nc2c(F)cccc2s1	inactive: -8.39%
Cc1nn(C(C)C(=O)Nc2ccc(C(C)C)cc2)c(=O)c2c1sc1ccccc12 (stereo not given)	inactive: -12.4%
CC(NC(=O)C1CCN(S(=O)(=O)c2ccccc2)CC1)c1ccccc1 (stereo not given)	inactive: -6.3%
CCc1nc(SC)ncc1C(=O)N1CCN(c2cc(Cl)ccc2C)CC1	inactive: -9.02%
CCCN(CCC)CCCNC(=O)c1cnn(-c2ccc(F)cc2)c1-n1cccc1	inactive: 7.85%
COc1cc(/C=C(\C#N)c2nc3ccccc3[nH]2)ccc1OCc1ccc(F)cc1	inactive: 31.1%
COc1cc(-c2nc(SCC(=O)Nc3ccc(C)cc3)c(-c3ccc(F)cc3)[nH]2)cc(OC)c1OC	inactive: -24.4%
CN(Cc1cnc2nc(N)nc(N)c2n1)c1ccc(C(=O)N[C@@H](CCC(=O)O)C(=O)O)cc1	inactive: 7% and inactive: -1.2%
COc1ccccc1CNc1nc(-c2ccco2)nn1C(=O)c1cc(OC)c(OC)c(OC)c1	inactive: -0.334%
CCc1ccccc1NC(=O)c1cc(S(=O)(=O)N2CCc3ccccc32)ccc1F	inactive: -25.7%
CCCn1c2ccccc2c2cnn(CC(=O)NCC3CCN(Cc4ccc(F)cc4)CC3)c(=O)c21	inactive: -7.68%
COc1ccccc1N1CCN(C(=O)c2cnn(-c3cccc(Cl)c3)c2C2CCN(C(=O)OC(C)(C)C)CC2)CC1	inactive: -25.4%
Cc1cccc(-c2nn3c(=O)cc(CN4CCN(C(=O)c5ccccc5Br)CC4)nc3s2)c1	inactive: -4.5%
C#CC(C)(CC)NC(=O)Cn1nnc(-c2ccc(OCc3ccccc3C)cc2)n1 (stereo not given)	active: 61.9%
Cc1ccccc1CNC(=O)C1=Cc2ccccc2OC1	inactive: -18.4%
Cn1c(=O)c2c(nc(N3CCOCC3)n2Cc2cccc(Br)c2)n(C)c1=O	inactive: -11.9%
COc1ccc(N2CCN(C(CNC(=O)C(=O)NCc3cccnc3)c3cccnc3)CC2)cc1 (stereo not given)	inactive: -5.83%
Cc1ccccc1CNC(=O)Cc1ccc(NC(=O)N2CCCCc3ccccc32)cc1	inactive: -17.3%
Cc1[nH]n2c(=O)cc(-c3ccc(Cl)cc3)nc2c1-c1ccccc1	inactive: -13.6%
Cc1ccc(-c2cc(N)n(-c3ccc(C)cc3)n2)cc1	inactive: -24.9%
CC(=O)OC[C@H]1O[C@@](COC(C)=O)(O[C@H]2O[C@H](COC(C)=O)[C@@H](OC(C)=O)[C@H](OC(C)=O)[C@H]2OC(C)=O)[C@@H](OC(C)=O)[C@@H]1OC(C)=O	inactive: -7.76%
Cc1c(C(=O)N2CCCCC2)c(S(=O)(=O)NCc2ccc(N(C)C)cc2)c(C)n1C	inactive: -6.91%
CCOc1ccc(C(=O)c2cn(CC(=O)Nc3cccc(OC)c3)c3cc4c(cc3c2=O)OCCO4)cc1	inactive: 10.2%
Cc1nn2c(-c3ccco3)ccnc2c1-c1ccc(Br)cc1	inactive: 16%

— PubChem BioAssay AID1346428 (National Center for Advancing Translational Sciences (NCATS), 2018)
